Data: article PMC10588329 (Protein Science : A Publication of the Protein Society, 2023)

Target: the molecule itself
Experiment: mass photometry

B1: Human wild-type CaMKII α (CaMKII^WT) (enzyme)
chain: not shown
stoichiometry N: 12 subunits
